The text below walks through data of the supplement of paper PMC11417369.

The list shows a part of the results.

In the experiment the test system is PfAP2-HC AP2 domain (GST-tagged). Briefly: gcPBM binding intensity (ln(normalized median fluorescence intensity)); higher = stronger DNA binding. Put shortly: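 Binding intensity is the highest Masliner-normalised natural-log median intensity over replicate spots in either probe orientation. To obtain it, GST-tagged P. falciparum DNA-binding domains made in E. coli were incubated for 1 h on an Agilent 4 × 180k array of primer-extended double-stranded 36-bp intergenic genomic probes plus negative controls. Detection used Alexa488 anti-GST antibody with scanning at 488 nm.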
“AAAAATTATAAAAAACAAATATTAAATAATTATTAA [GTGCAC_negctrl_site125]”: the “gcPBM binding intensity (ln)” value stood at 9.3.
The result for “TTTTTTTTTTTTTTTTTTTTTTTGCTCAGTGTGGTA [CACACA_negctrl_site29]” reads 8.94; that for “TTCTATTCACATTTTACACACGTCCATCGCATTTTA [CACACA_site3453]”, 10.3.
With “TTTTAAATTTAATTTACACACTTTTCATAGCATTGA [CACACA_site3794]”, the “gcPBM binding intensity (ln)” value was determined as 9.61.
The result for “TATATATATGGTTTAACACACGAGATAAAAGTATAT [CACACA_site2867]” reads 9.93; that for “TTATATTTATAAAATTGTATACCCCTTCTAACTTTC [CACACA_negctrl_site250]”, 9.5; that for “ATTGTGCTCATCAGCACACACAACATCATGTAATAA [CACACA_site1863]”, 9.83.
The figure for “TATATGGTATGTATTACACACATATCACATATAGAT [CACACA_site7426]” is 9.77.
The result for “TATATATATATATAATGTACTTATATTTTTTTGAGG [XGTACX_site2638]” reads 9.48.
For “ATATGTATAAGTATGTATATTTATTTATACTTATGT [GTGCAC_negctrl_site221]”, the “gcPBM binding intensity (ln)” value was determined as 9.73.
The figure for “TTAATTAAAACGAATACACACATAAATATGTAAAAG [CACACA_site6707]” is 9.86; for “AAAAAAAAAAAAAAAAGTACATATATATATTTATAT [XGTACX_site5893]” it is 9.46.
The figure for “TTCTTATTTAATGTATCACACACGAGAATAAAAAAT [CACACA_site8992]” is 9.73; for “ACATTTAATGTTATATGTACATAATATTATAAGTAT [XGTACX_site1393]” it is 9.75.
Consider “CATATGGCAATAATTACATGCAAAAAAAAAAAAAAA [TGCATGCA_site578]”, for which the “gcPBM binding intensity (ln)” value came out at 9.36.
On to “AGCCATATCTTTTTTGCACACACTACAATAAAACAA [CACACA_site1650]”, for which the “gcPBM binding intensity (ln)” value is 9.84.
The figure for “AATGTAAAAGTAAACACACACATATATTTATACATA [CACACA_site7218]” is 10.7.
The figure for “ACAGACGTTCAAAGGTGTACGCAAAATGAATAATAT [XGTACX_site7565]” is 9.65; for “GTAAATCGACACATACGTACATACATTTATATATAT [XGTACX_site3143]” it is 9.91; for “AAAAAAAAGAAAAACACACACATATATATATATAAT [CACACA_site4707]” it is 10.2.
The figure for “ACATTATATTTGGACTGTACTAATATATTGTTATAT [XGTACX_site5573]” is 9.65.
In the case of “TATACATATATATATTGTACATATTATATATATATA [XGTACX_site3286]”, the “gcPBM binding intensity (ln)” value was determined as 9.59.
In the case of “ATATATATATATATATGTACATATTGTATCTTATAC [XGTACX_site5466]”, the “gcPBM binding intensity (ln)” value stood at 9.69.
As for “TATCTTTTTATTTTTTATTTTTTTTTTATAATTTAC [XGTACX_negctrl_site414]”, the “gcPBM binding intensity (ln)” value was found to be 9.56.
On to “TCATTGAAAATTGTTGCACACATAATAATTAAATAT [CACACA_site8554]”, for which the “gcPBM binding intensity (ln)” value was 9.71.
Regarding “ACACATATGTCTTCATGTACATAATATATAAATCTT [XGTACX_site3438]”, the “gcPBM binding intensity (ln)” value is 9.68.
The figure for “CATAAATCAGCCATAACACACATACATATATACATA [CACACA_site8025]” is 10.
As to “TCTTGTTTATCAACAGCACACACAACAACAACAACA [CACACA_site8046]”, the “gcPBM binding intensity (ln)” value came to 9.99.
On to “TATATATATACAGTTGCATGTTGTGTTTAAAATTTT [TGCATGCA_site816]”, for which the “gcPBM binding intensity (ln)” value was 9.85.
Turning to “TGTTAAAAAATGGATGCACACATTAAATAAAAAGTA [CACACA_site1660]”, the “gcPBM binding intensity (ln)” value stood at 9.89.
The figure for “TAAAGGTAGATATATTGTACATACACACCTATATAA [XGTACX_site6865]” is 9.66.
The result for “TTATATTTAGTATATGCACACTTTATGTTTGTTATT [CACACA_site5163]” reads 9.91; that for “TATAAATACGAACACACACACCTTATAATTACTACT [CACACA_site7827]”, 10.4.
“AAGAAAGGTTAAACATGTACATAAATATTTTACATA [XGTACX_site5024]”: the “gcPBM binding intensity (ln)” value worked out at 9.64.
The figure for “AAAAACCATTGGCACACACACATAATATATAATATA [CACACA_site4903]” is 11.4; for “CTTTAAACCCTGAACACACACAAATACAGACAAAAA [CACACA_site247]” it is 10.1; for “GTATTTTAATATAAATGTACATAAATGTTATATATA [XGTACX_site3475]” it is 9.67.
“AATATTGTATATAATAAACACACAATATTAAAAATA [CACACA_site8262]”: the “gcPBM binding intensity (ln)” value was 10.1.
With “TACACAAGAAAATTCACACACACACGGATATTTATA [CACACA_site7765]”, the “gcPBM binding intensity (ln)” value worked out at 10.6.
As to “GTATCGAAGTAAATACGTACTTAAATATGTTTAAAA [XGTACX_site1353]”, the “gcPBM binding intensity (ln)” value worked out at 9.48.
The figure for “ACGTACTGCCCTAAAGTGCATATATAATATAAACGA [GTGCAC_site9911]” is 9.52; for ATATGACTTAAATATGTGCGCATTTTTTTTTTTTTT it is 9.83; for “CATATATAAATCATGTGTACGTATTGAGTATCTACT [XGTACX_site6278]” it is 9.65.
The figure for “AGGATATATAATTAAGTGCATTAATTCAAAATAAAA [GTGCAC_site9702]” is 9.67; for “TTATTATTTTATAACACACACATATATATTATATCT [CACACA_site1434]” it is 9.98.
Regarding “ATAAGATATGTATATACACACATTTATTTACCTATA [CACACA_site7521]”, the “gcPBM binding intensity (ln)” value is 9.89.
On to “TAAACAAAATATATATGTACATATATATATATATAT [XGTACX_site6502]”, for which the “gcPBM binding intensity (ln)” value turned out to be 9.66.
“TTTTATTTGACAAGCACACACTTAAATATATTTATA [CACACA_site7557]”: the “gcPBM binding intensity (ln)” value was 9.85.
Take “AAAACATTTTCAAACTGTACACATAGAACTATGCAT [XGTACX_site4087]”: the “gcPBM binding intensity (ln)” value is 9.62.
The result for “ACATAAGAAGTTATATGTACATATATTTTTTAAATT [XGTACX_site8078]” reads 9.69; that for “ATCTAGCCATTTTTTAGTACACATAAATAAAAAAAA [XGTACX_site1257]”, 9.41.
On to “CATTAATAACAAAGTTGTACAAGATAATATTATATG [XGTACX_site6832]”, for which the “gcPBM binding intensity (ln)” value turned out to be 9.87.
As for “TATATTTTAGTTAATGCATGTGTGCATCCATTTAAA [TGCATGCA_site887]”, the “gcPBM binding intensity (ln)” value turned out to be 9.69.
“ATACATATATATATATGTACACACATTAATAAAAAA [XGTACX_site6874]”: the “gcPBM binding intensity (ln)” value is 9.89.
For “TATAAATAAATTTATACACACACACCCATATATATA [CACACA_site8183]”, the “gcPBM binding intensity (ln)” value was 10.3.
The figure for “TACCAAAATAGACACACACACAAAATATGTAAATAT [CACACA_site6963]” is 11; for “TTTGTTATATTTAATACACACATATTATAAACCCAT [CACACA_site3716]” it is 9.87.
